Data on 78 compounds can be found in PubChem BioAssay AID1645887 (National Center for Advancing Translational Sciences (NCATS), 2021).

Where “and” joins values, the source holds several entries; their conditions need not be identical. Equal values may be shown once. The campaign covered roughly 16,000 compounds. About 40 (0.2%) were called active. Not shown: some 1% with an inconclusive outcome. Calls come from the whole dose curve; as a rule, active = well fitted activation curve with a large enough effect; inconclusive = small, poorly fitted or top-dose-only effect, or another doubt; inactive = no such curve, though single readings can be large or run the other way. The list shows a part of the results.
% is set by controls: 0 for no effect and ±100 for the full control effect.

UniProt Q8WZA2, sequence (Q8WZA2 whole entry, looked up): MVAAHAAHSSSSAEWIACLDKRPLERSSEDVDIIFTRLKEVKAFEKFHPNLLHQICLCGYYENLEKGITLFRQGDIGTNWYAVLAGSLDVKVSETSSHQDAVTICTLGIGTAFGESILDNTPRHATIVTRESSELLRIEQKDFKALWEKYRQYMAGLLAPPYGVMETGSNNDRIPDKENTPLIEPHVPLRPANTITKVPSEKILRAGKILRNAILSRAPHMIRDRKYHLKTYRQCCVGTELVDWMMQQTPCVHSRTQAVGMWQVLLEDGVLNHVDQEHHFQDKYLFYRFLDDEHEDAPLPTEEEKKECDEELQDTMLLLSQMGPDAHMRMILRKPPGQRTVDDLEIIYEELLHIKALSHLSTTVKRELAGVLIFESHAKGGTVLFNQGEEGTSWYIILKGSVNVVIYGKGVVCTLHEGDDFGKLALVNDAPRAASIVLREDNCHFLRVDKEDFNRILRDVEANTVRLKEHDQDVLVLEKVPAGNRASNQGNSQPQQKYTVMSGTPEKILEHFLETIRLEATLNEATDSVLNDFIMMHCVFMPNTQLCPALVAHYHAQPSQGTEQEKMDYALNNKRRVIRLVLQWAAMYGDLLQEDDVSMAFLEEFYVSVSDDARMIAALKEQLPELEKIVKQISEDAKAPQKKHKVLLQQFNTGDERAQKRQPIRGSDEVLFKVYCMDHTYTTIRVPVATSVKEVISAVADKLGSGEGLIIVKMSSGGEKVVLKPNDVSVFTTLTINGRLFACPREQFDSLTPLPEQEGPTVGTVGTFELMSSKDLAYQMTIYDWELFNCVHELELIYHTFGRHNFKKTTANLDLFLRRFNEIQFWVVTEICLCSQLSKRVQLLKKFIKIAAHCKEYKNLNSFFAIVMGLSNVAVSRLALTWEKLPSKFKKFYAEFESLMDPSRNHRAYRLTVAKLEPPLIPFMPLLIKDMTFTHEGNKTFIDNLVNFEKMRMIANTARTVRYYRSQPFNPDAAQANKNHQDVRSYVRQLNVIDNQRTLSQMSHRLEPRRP

The target of the assay is Rap guanine nucleotide exchange factor 4 (Homo sapiens) (UniProt Q8WZA2). In words: Validation qHTS for agonist of cAMP-regulated guanine nucleotide exchange factor 4 (EPAC2).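 Note: exchange makes BODIPY-GDP fluorescence drop when released from Rap1B; series mostly up to about 150 µM.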 As to conditions: EPAC2 Rap1B BODIPY-GDP exchange, fluorescence; activation: hits give high values. A digest of the protocol:
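Fluorescent exchange assay: 100 nM EPAC2 with 250 nM RAP1B-BODIPY-GDP and 50 uM GDP; compound added, 5 min at room temperature, then read (ex 480/em 540 nm) every 5 min for 30 min. Normalized to 6.5 mM cAMP agonist control.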
Consider `O=C(NCC1Cc2cccc(-c3nccs3)c2O1)c1ccnc(Cl)c1` (stereo not drawn), for which the activation is inactive: -8.95%.

Take `O=c1c(-c2cc(F)cc(F)c2)nc2cnc(N3CCOCC3)nc2n1Cc1cccs1`: the activation was inactive: -4.83%.

For the compound `c1coc(-c2ccccc2CN2CCOc3ccc(CN4CCOCC4)cc3C2)c1`, the activation is inactive: -27.1%.

On to `Cc1c(C(=O)N2CCCC2)sc2ncnc(NCCc3ccccn3)c12`, for which the activation was inactive: -11.2%.

As for `O=C1CCN(Cc2cccn2-c2ccccn2)CCN1Cc1ccccc1C(F)(F)F`, the activation is inactive: -1.02%.

On to `CNc1ncnc2c1ncn2[C@H]1C[C@H](O)[C@@H](CO)O1`, for which the activation was inactive: 6.03%.

Take `COc1ccc2[nH]cc(CCNC(=O)C3CC3)c2c1`: the activation was inactive: -4.16%.

Take `C=C[C@@H]1c2cc(C)ccc2N(S(=O)(=O)c2ccc(C)cc2)[C@H](c2ccc(OC(C)=O)cc2)C1(C#N)C#N`: the activation is inactive: -9.82%.

For `COC(=O)CCCC[C@@H]1SC[C@@H]2NC(=O)N[C@@H]21`, the activation was inactive: 2.32%.

With `COc1cc(OC)c(OC)cc1/C=c1\[nH]c(=O)/c(=C/c2cc(OC)c(OC)cc2OC)[nH]c1=O`, the activation was inactive: -14.9%.

With `Cc1ccccc1-c1ccc2ncnc(-n3ccnc3)c2c1`, the activation is inactive: -9.37%.

As to `COC(=O)[C@@]1(C)CCC[C@@]2(C)c3ccc(O)c(C(C)C)c3CCC21` (stereo partly drawn), the activation is inactive: -28.7%.

On to `CC#CCC(C)[C@H](O)/C=C/[C@@H]1[C@H]2c3cccc(CCCC(=O)O)c3O[C@H]2C[C@H]1O` (stereo partly drawn), for which the activation was inactive: 11.9%.

For the compound `CCc1ccc(CCOc2ccc(CC3SC(=O)NC3=O)cc2)nc1` (stereo not drawn), the activation was inactive: 10.1% and inactive: -0.481%.

Turning to `CNC1C(O)[C@@H]2OC(O[C@@H]3C(O)C(O)C(N)C[C@H]3N)C(N)C[C@H]2O[C@H]1O[C@@H]1OC(CO)C(N)C(O)C1O` (stereo partly drawn), the activation was inactive: -0.0486%.

For the compound `COC(=O)[C@H]1[C@H]2C[C@@H]3c4[nH]c5cc(OC)ccc5c4CCN3C[C@H]2C[C@H](OC)[C@@H]1OC`, the activation was inactive: -18.5%.

Regarding `COc1ccc(OC)c(-c2ccnc(-n3ncc(C(=O)N(C)CCO)c3C3CC3)n2)c1`, the activation is inactive: -2.72%.

As for `CC(C)(C)c1ccc(/C=C/C(=O)Nc2ccc3c(c2)OCCO3)cc1`, the activation is inactive: -30.8%.

With `Cc1c(C(C)C)c(=O)n(-c2ccccc2)n1C`, the activation is inactive: 1.7%.

As to `Cc1ccc(CNc2nc(CN3CCCCC3c3cccnc3)nc3ccccc23)o1` (stereo not drawn), the activation was inactive: -7.59%.

Regarding `CNC(=O)[C@H]1O[C@@H](n2cnc3c(N)ncnc32)[C@H](O)[C@@H]1O`, the activation was inactive: -6.23%.

Regarding `Cc1noc(C)c1C(=O)N1CCC[C@@]2(CCN(c3ccccn3)C2)C1`, the activation is inactive: -4.38%.

As to `COCCn1c(=O)c(-c2cn(C)c3ccccc23)nc2cnc(N3CCNCC3)nc21`, the activation was inactive: 1.44%.

Turning to `CC(C)(CNC(=O)c1cnn(-c2ncc3c(n2)-c2ccccc2CCC3)c1C1CC1)N1CCOCC1`, the activation was inactive: -10.6%.

As for `COc1cc(=O)n2c(c1C(=O)N(C)Cc1nccs1)CCN(Cc1ccc(Cl)cc1)CC2`, the activation was inactive: 2.99%.

For `NCCCCC(=O)O`, the activation was inactive: -7.11% and inactive: -11.4%.

On to `c1ccc(CC2=NCCN2)cc1`, for which the activation was inactive: 11.5% and inactive: 8.53%.

Take `CC(=O)OC1CC2C(C)(C)C(O)CC[C@@]2(C)C2CC[C@@]3(C)C(c4ccoc4)OC(=O)C4OC43[C@]12C` (stereo partly drawn): the activation is inactive: -9.03%.

Regarding `C/C=C(\C)C(=O)OC1C(OC(=O)C2(C)OC2C)c2cc3ccc(=O)oc3cc2OC1(C)C` (stereo not drawn), the activation is inactive: -24.9%.

With `O=C(c1ccncc1)N1CCC2(CCCN(c3ncccn3)C2)CC1`, the activation was inactive: -2.5%.

For `OCCN1CCN(CCCN2c3ccccc3Sc3ccc(C(F)(F)F)cc32)CC1`, the activation is inactive: -15.7% and inactive: -80.7%.

For `CC(C)(Oc1ccc(CCNC(=O)c2ccc(Cl)cc2)cc1)C(=O)O`, the activation is inactive: -5.42% [middle of 5 runs].

With `Cc1cccnc1-c1cccc2c1OC(CNC(=O)C1CCCc3c1[nH]c1ccccc31)C2` (stereo not drawn), the activation is inactive: -0.76%.

For `CCCCCCCCCCCCCC(=O)N[C@H](C)[C@@H](O)c1ccccc1`, the activation is inactive: 4.75%.

On to `CC(=O)OCC1OC(n2cnc3c(Cl)nc(Cl)nc32)C(OC(C)=O)C1OC(C)=O` (stereo not drawn), for which the activation is inactive: -11.2%.

For the compound `CC(CCC(=O)O)C1CCC2C3C(O)C[C@@H]4CC(O)CC[C@@]4(C)C3CC(O)[C@]12C` (stereo partly drawn), the activation is inactive: -16.6%.

As for `COc1ccc(S[C@@H](CCN2CC[C@H](O)CCC2=O)c2ccccc2)cc1`, the activation was inactive: -20%.

As to `CC(C)C[C@@H](CO)N1CCN(Cc2ccc(O)cc2)CCC1=O`, the activation was inactive: -4.35%.

As for `COCc1c(C(=O)N2CCC(N(C)C)C2)cnn1-c1ncc2c(n1)-c1ccccc1CCC2` (stereo not drawn), the activation was inactive: -10.6%.

Turning to `COc1cccc(Nc2ncc3nc(CCc4ccccc4)c(=O)n(C4CC4)c3n2)c1`, the activation is inactive: -2.12%.

Consider `COc1ccc(CN2CCOc3ccc(CN4CCC(O)(c5cccnc5)CC4)cc3C2)cc1OC`, for which the activation is inactive: -16%.

Regarding `O=C(O)CCc1nc(-c2ccccc2)c(-c2ccccc2)o1`, the activation was inactive: 2.82% and inactive: -16.4% and inactive: -14.8%.

On to `N#CC[C@H](Cc1ccccc1)N1CC[C@@H](NC(=O)OCc2ccccc2)CCC1=O`, for which the activation was inactive: -28.7%.

For `Cc1cnc(CNc2ccnc(-c3cccnc3)n2)cn1`, the activation is inactive: 1.85%.

Consider `O=C(NCCN1CCOCC1)c1cnn(-c2nccc(-c3ccccc3C(F)(F)F)n2)c1C1CC1`, for which the activation is inactive: 4.73%.

Turning to `COCCNc1ncnc2ccc(-c3ccc(N(C)C)cc3)cc12`, the activation was inactive: -5.1%.

In the case of `CCCCC/C(C=O)=C\c1ccccc1`, the activation is inactive: 7.81%.

On to `O=C(Nc1ccccc1)N1CC[C@@]2(CCCN(C(=O)c3cc(C(F)(F)F)cc(C(F)(F)F)c3)C2)C1`, for which the activation is inactive: -24.1%.

As for `Clc1ccc2c(c1)C(N1CCNCC1)=Nc1ccccc1O2`, the activation is inactive: -7.13% and inactive: -10.8% and inactive: -27.4%.

In the case of `CC(C)N=C(N)/N=C(\N)Nc1ccc(Cl)cc1`, the activation is inactive: 8.03%.

On to `C[C@@H](CN(C)C[C@H]1C(=O)O[C@@H]2C[C@@]3(C)CCC[C@]4(CO4)C3CC21)[C@H](O)c1ccccc1` (stereo partly drawn), for which the activation is inactive: -0.0602%.

As to `O=C1c2ccccc2C(=O)C1c1ccccc1`, the activation was inactive: 10.4% and inactive: 9.12%.

`Cc1ncc2c(c1CNC(=O)c1ccccc1F)CCN(C(=O)c1[nH]c3ccc(Cl)cc3c1C)C2`: the activation was inactive: 7.7%.

In the case of `O=C(Cn1ccnc1[N+](=O)[O-])NCc1ccccc1`, the activation is inactive: -11.2%.

As to `CC1(C)OC2C[C@](O)(C(N)=O)C[C@H](O)[C@H]2O1` (stereo partly drawn), the activation is inactive: -6.74%.

`COC(=O)c1c(OCc2cccnc2)cc(=O)n2c1CCN(C(=O)c1cccc(N(C)C)c1)CC2`: the activation was inactive: -1.52%.

In the case of `Cc1cccc(CNC(=O)c2cnn(-c3ncc(C)c(-c4ccc(F)cc4)n3)c2C)n1`, the activation is inactive: 0.336%.

In the case of `C/C(=C(\CCO)SS/C(CCO)=C(\C)N(C=O)Cc1cnc(C)nc1N)N(C=O)Cc1cnc(C)nc1N`, the activation is inactive: 5.18%.

For `CC[C@H]1OC(=O)[C@H](C)[C@@H](O[C@H]2C[C@@](C)(OC)[C@@H](O)[C@H](C)O2)[C@H](C)[C@@H](O[C@@H]2O[C@H](C)C[C@H](N(C)C)[C@H]2O)[C@](C)(O)C[C@@H](C)C(=O)[C@H](C)[C@@H](O)[C@]1(C)O`, the activation was inactive: -24.3% and inactive: -3.22%.

For `COC(=O)C1C(O)CC[C@H]2CN3CCc4c([nH]c5ccccc45)C3C[C@H]12` (stereo partly drawn), the activation was inactive: 2.5%.

`COc1ccc(-n2c(=O)c(-c3ccc(Cl)cc3)nc3cnc(N4CCOCC4)nc32)cc1`: the activation is inactive: -32.8%.

Take `COc1ccccc1C(=O)N[C@@H]1c2ccccc2C2(CCN(Cc3cnn(C)c3C)CC2)[C@H]1O`: the activation was inactive: -17%.

On to `CC(C(=O)O)c1ccc(CC2CCCC2=O)cc1` (stereo not drawn), for which the activation is inactive: -2.05% and inactive: -15.2%.

Turning to `O=C1CC[C@H](O)CCN1CCSc1ccc(Br)cc1`, the activation was inactive: -22.3%.

As for `Cc1ccccc1C(=O)NC(C)c1nnc2n1CCN(Cc1ccnc3ccccc13)CC2` (stereo not drawn), the activation was inactive: -13.3%.

Regarding `CCOC(=O)C[C@H]1c2cc(F)ccc2S(=O)(=O)N1C(C)C`, the activation was inactive: -13.6%.

`Cc1c(C(=O)N(C)C2CCOC2)cnn1-c1ncc2c(n1)-c1ccccc1CCC2` (stereo not drawn): the activation is inactive: -4.71%.

`COc1ccc(CN2CCC3(CC2)c2ccccc2[C@@H](NC(=O)c2ccco2)[C@@H]3OC)c(O)c1`: the activation is inactive: 9.16%.

Regarding `CN(C)c1ccc(/C=C2\CCCCC2=O)cc1`, the activation is inactive: -22.4%.

Turning to `COc1ccc(-c2nc3cc(F)ccc3cc2CN(C(=O)c2cccs2)C2CC2)cc1`, the activation is inactive: -25.1%.

As to `CC1=C(/C=C/C(C)=C/C=C/C(C)=C/C=C/C=C(C)/C=C/C=C(C)/C=C/C2=C(C)CCCC2(C)C)C(C)(C)CCC1`, the activation is inactive: -16.5%.

Consider `O=C(Nc1ccccc1)[C@@H]1CC=C[C@@H]2CCN(Cc3ccc(Cl)c(Cl)c3)C(=O)[C@@H]21`, for which the activation was inactive: -20.3%.

Consider `COc1ccc(CNc2cc(-c3cccc(NS(C)(=O)=O)c3)ncn2)c(OC)c1`, for which the activation was inactive: -3.23%.

`NC(=O)Nc1ccc(/C=C2\C=Cc3ccccc32)cc1`: the activation was inactive: -10.9%.

Turning to `O=C(CCc1ccc(O)cc1)c1c(O)cc(O)cc1O[C@H]1OC(CO)C(O)C(O)C1O` (stereo partly drawn), the activation is inactive: -10.1%.

`c1ccc(C(O[C@H]2CCCN(CCc3ccc4c(c3)OCO4)C2)c2ccccc2)cc1`: the activation was inactive: 1.94%.

As for `Cc1nc(N=Nc2cc(S(=O)(=O)O)ccc2S(=O)(=O)O)c(COP(=O)(O)O)c(C=O)c1O`, the activation was inactive: -7.72%.

As for `CCCCN1CC[C@H]2C=CC[C@@H](C(=O)Nc3ccc(Cl)cc3Cl)[C@H]2C1=O`, the activation is inactive: -23.5%.
